Results taken from ChEMBL document CHEMBL4888484, “Replenishing the malaria drug discovery pipeline: Screening and hit evaluation of the MMV Hit Generation Library 1 (HGL1) against asexual blood stage Plasmodium falciparum ,using a nano luciferase reporter read-out” (2022).
Values joined by “and” are separate entries in the source; they are usually repeats but may differ in a detail not shown here. Equal entries are not always repeated. The campaign covered roughly 150,000 compounds. About 540 (0.36%) showed an effect of 50% or more. The list shows a part of the results.

Tested on: Plasmodium falciparum
Assay: Primary screen in NF54 nanoGlo assay, in single point, at 2uM, 72h; a lower Z score goes with more inhibition
Format: functional, Erythrocyte
Settings: timepoint 72 hour

SMILES | % Inhibition | Z score | % Inhibition (2 µM) | Z score (2 µM)
Clc1cnc(N2CCCN(c3ccc4nncn4n3)CC2)nc1 | -21% | 2.4 | – | –
CCc1ncc(CN2CC[C@@]3(CCCN(Cc4cccc(OC)c4)C3=O)C2)cn1 | 6% | -0.83 | – | –
Cc1cc(NC(=O)CCC2CCC(C)O2)nc(=O)[nH]1 (centres undefined) | -7% | 1.07 | – | –
O=C(CO)N[C@H]1CCCC[C@H]1C(F)(F)F | -9% | 1.15 | – | –
NC(=O)C1CN(c2nc3ccccc3s2)CC1C(N)=O (centres undefined) | 28% | -3.2 | – | –
COc1cccc(N2CCN(C(=O)c3ccc4c(c3)N(Cc3ccccc3)C(=O)CO4)CC2)c1 | -8% | 1.01 | – | –
CC[C@H](C)NC(=O)c1ccc(OCC2CCOCC2)nc1 | -14% | 2.67 | – | –
COc1nn(C)cc1C(=O)Nc1nnc(C)s1 | 3% | -0.39 | – | –
CCN1CCN(CCCNc2ncnc3onc(-c4cccc(Cl)c4)c23)CC1 | 3% | -0.44 | – | –
CC(C)[C@H](NS(=O)(=O)c1cccc(Cl)c1)C(=O)NCC1(S(C)(=O)=O)CC1 | 32% | -3.58 | – | –
COC(=O)c1cccc(CN2CCC[C@H](C(=O)N3CCCC3)C2)n1 | -2% | 0.42 | – | –
O=C(Cn1c(=O)sc2cc(S(=O)(=O)N[C@H]3CCCc4ccccc43)ccc21)N1CCCC1 | 15% | -1.78 | – | –
CCC(C(=O)N1CCN(C(C#N)C(C)C)CC1)N1CCCC1=O (centres undefined) | -11% | 0.89 | – | –
Clc1ccc(COc2ccc(CNCc3ccccn3)cc2)cc1 | -14% | 2.76 | – | –
COc1ccc(C(=O)Nc2ccc(C3OC(=O)N(Cc4ccc(F)cc4)C3C(=O)NCC(C)C)cc2)cc1 (centres undefined) | -5% | 0.69 | – | –
CCn1c(-c2nccn2CCO)nc2ccccc21 | -10% | 2.03 | – | –
Cc1ccc(NC(=O)N2CC[C@H](Oc3ncccc3C(=O)N3CCCCC3)C2)c(Cl)c1 | -14% | 2.29 | – | –
Cc1nnc(-c2cc3cc(Oc4ccccc4)ccc3[nH]2)s1 | 1% | -0.11 | – | –
COc1ccc([C@H](CO)N(C)CCCOC(C)C)cc1 | -6% | 0.52 | – | –
CN(Cc1ccccc1)C(=O)N1CCN2C(=O)C(=O)NC[C@H]2C1 | -12% | 1.18 | – | –
CCCc1cc(N[C@@H]2C[C@@H](C(=O)NC)N(C3CCOCC3)C2)nc(C)n1 | 0% | 0.09 | – | –

SMILES | % Inhibition | Z score | % Inhibition (2 µM) | Z score (2 µM)
O=C1NC[C@H]2O[C@H](CCOc3cc(-c4ccccc4)ccc3C(=O)N3CCN(Cc4ccc5c(c4)OCO5)C[C@@H]13)CC[C@@H]2O | 26% | -2.97 | – | –
COc1ccc(NC(=O)Cc2ccc(N(Cc3cccc(F)c3)C(=O)CC(C)C)cc2)cc1 | -16% | 1.55 | – | –
O=C(c1cccnc1)N1CC(c2noc([C@@H]3CCCN3CC3CC3)n2)C1 | 6% | -0.7 | – | –
Cc1ccc(-n2ncc(C#N)c2N(Cc2ccc(F)c(F)c2)Cc2ccc(F)c(F)c2)cc1 | -8% | 0.94 | – | –
Cc1cc(C)n(-c2ncc(NC(=O)COc3ccc(-n4cccn4)nn3)cn2)n1 | -6% | 1.19 | – | –
CC(C)C(=O)N1CCc2cc(S(=O)(=O)N3CCOCC3)ccc21 | -17% | 1.54 | – | –
C[C@@H](CN1CCCCCC1)NCCCc1ccccc1 | -5% | 0.79 | – | –
CC1OCCC1NCc1cc(Cl)c2c(c1)OCO2 (centres undefined) | 2% | -0.28 | – | –
COc1cc(CN(C)Cc2nnn(C(C)(C)C)n2)sn1 | -13% | 1.17 | – | –
O=C1C(=O)N(Cc2ccc3ccccc3c2)c2ccc(Br)cc21 | 4% | -0.51 | – | –
Cc1cccc(C(=O)N[C@H]2CC[C@H](Nc3nccc(-c4ccncc4)n3)C2)n1 | -19% | 1.75 | – | –
Cc1nnc(-c2ccccc2NC(=O)[C@@H]2CC(c3ccccc3)=NO2)o1 | -1% | 0.13 | – | –
Cc1cccc(NC(=O)Cn2c(=O)n(CCc3cccs3)c(=O)c3sccc32)c1C | -3% | 0.44 | – | –
CC(C)NC(=O)CNC(=O)CN1C(=O)NC2(CCCCCCC2)C1=O | -8% | 0.78 | – | –
COc1cccc(CN2CCC3(CC2)C[C@H](c2ccccc2)C(=O)N3C)c1 | 1% | -0.1 | – | –
O=C(CN1CCC(c2ncco2)CC1)Nc1cc(F)cc(F)c1 | -5% | 0.84 | – | –
COc1cc(C#N)ccc1Oc1ccc(NC(=O)c2sc(NC(=O)C(C)(C)C)cc2C)cc1 | 5% | -0.82 | – | –
COc1cccc(OC2CN(Cc3cccc(F)c3F)C2)c1 | -13% | 1.49 | – | –
COCC[C@]1(NC(=O)c2ccc(F)cc2)CCN(S(=O)(=O)C2CC2)C1 | -1% | 0.17 | – | –
COc1ccccc1[C@H]1CC(=O)Nc2c1c(C)nn2-c1ncccn1 | -3% | 0.42 | – | –
O=C1CC[C@@]2(CCCN(C(=O)Cc3ccc(CO)cc3)C2)CN1CCO | -4% | 0.67 | – | –

SMILES | % Inhibition | Z score | % Inhibition (2 µM) | Z score (2 µM)
O=C(CN1CCCC1=O)N1CCN(c2ncccn2)CC1 | -6% | 1.14 | – | –
C[C@@H](COCc1ncc[nH]1)C(=O)c1ccc(F)c(F)c1 | -8% | 1.13 | – | –
CN(C)c1ccc(CCC(=O)N2C[C@H]3C[C@H](O)[C@H](O)C[C@H]3C2)cc1 | -13% | 1.67 | – | –
Cc1cc(C(=O)N2CC(N3CCNC3=O)C2)nn1C(F)F | 0% | -0.07 | – | –
CN(Cc1cnc(C(C)(C)C)s1)C1CCN(S(C)(=O)=O)CC1 | 3% | -0.43 | – | –
CCc1c(C(=O)N2CCN(C)C(=O)C2(C)C)nnn1-c1ccc(OC(C)C)cc1 | -9% | 1.26 | – | –
CC(=O)N1CCN(c2ncccc2CNC(=O)[C@H](O)c2ccc(F)cc2)CC1 | -12% | 1.46 | – | –
CCc1nc(CN(C)c2ncccc2S(=O)(=O)N2CCCCC2)cs1 | -1% | 0.12 | – | –
Cc1cccc(CN2CCC[C@@](O)(CN3CCN(CC4CCC4)CC3)C2=O)c1 | 2% | -0.38 | – | –
COc1cc([C@H]2CC(=O)Nc3nc(N4CCCCC4)sc32)ccc1O | – | – | -10% and -14% | 1.25 and 1.66
O=S(=O)(Nc1cc(C(F)(F)F)n[nH]1)c1cc(F)c(F)c(F)c1 | -10% | 1.29 | – | –
Cc1cccc(Cn2ncc(C)c2NC(=O)CCN2CCCCC2=O)c1 | -6% | 1.13 | – | –
CCC1(CN=C(NC)NCc2ccco2)CC1 | 0% | -0.03 | – | –
O=C(c1ccc(F)c(Cl)c1)N1CCN(c2nccn3nc4c(c23)CCCC4)CC1 | -8% | 1.6 | – | –
CCc1ccc(CN2CC[C@]3(C2)CN(C)C(=O)CO3)s1 | -7% | 0.82 | – | –
O=C(c1ccc(N2CCc3ccccc32)s1)N1CCN(c2cccc(Cl)c2)CC1 | -17% | 2.26 | – | –
Cc1nc(CN(C(=O)C(C)C)C2CC2)[nH]c(=O)c1Cc1cccc(C(F)(F)F)c1 | 1% | -0.11 | – | –
CC(C)(C)c1noc(OCCOCC(F)F)n1 | -10% | 1.43 | – | –
CCn1nccc1CNc1nnc(Cc2ccc3ccccc3c2)o1 | 0% | -0.03 | – | –
Cc1cccc2nc(-c3cccs3)c(Nc3ccc4c(c3)OCCO4)n12 | 0% | -0.07 | – | –
CC(C)c1nnc(NCC(C)(C)N2CCCC2)s1 | -3% | 0.5 | – | –

SMILES | % Inhibition | Z score | % Inhibition (2 µM) | Z score (2 µM)
Fc1ccc(-c2noc([C@@H]3CCCN3Cc3ccc4c(c3)OCO4)n2)nc1 | 12% | -1.38 | – | –
C[C@@H](C(=O)NCc1noc(C2CC2)n1)N(c1ccccc1)S(C)(=O)=O | 14% | -1.78 | – | –
Cc1nc2c(c(-c3cccnc3)n1)CCC2 | -17% | 3.13 | – | –
COc1ccc(C)cc1S(=O)(=O)[C@H]1CS(=O)(=O)C[C@@H]1N(C)CCc1ccncc1 | -9% | 1.16 | – | –
O=C(Cc1ccc(O)c(F)c1)N1CCCO1 | -1% | 0.19 | – | –
O=C(c1ccsc1)N1CCN(C(=O)c2nc3ccccc3[nH]2)CC1 | 3% | -0.43 | – | –
CS(=O)(=O)[C@H]1CCN(C(=O)c2ccsc2)C1 | -11% | 1.88 | – | –
COc1c[nH]c(C(=O)Nc2nc3c(s2)CCCC3)cc1=O | -11% | 2.12 | – | –
O=C(NCCc1csc(N2CCCC2)n1)Nc1ccnn1Cc1cccs1 | -4% | 0.56 | – | –
O=C(NCC[C@H]1CCCO1)c1cnc(-c2ccsc2)s1 | -5% | 0.6 | – | –
Cc1cnn(Cc2csc(C3CCCC3)n2)c(=O)c1 | -6% | 1.07 | – | –
CC(C)=CCO[C@H]1COCC[C@@H]1NC(=O)c1cc(C(C)C)no1 | 3% | -0.46 | – | –
O=C(Nc1cc(F)ccc1F)c1cc2sccc2n1Cc1ccc(Cl)cc1 | -8% | 1.58 | – | –
O=C(Nc1ccc2c(c1)OCO2)N1CCC[C@H]1c1ccc2c(c1)OCCO2 | 4% | -0.72 | – | –
CC(C)c1cccc(N(C)C(=O)c2coc(CN)c2)c1 | -17% | 2.5 | – | –
Cc1ccc(O[C@H]2CCN(C(=O)CCc3ccccc3)C2)nn1 | -7% | 1.08 | – | –
COc1ccccc1-c1cc(=O)n(CC(=O)NCc2ccccc2)c2c1CCCC2 | -3% | 0.43 | – | –
Cc1cccc(-c2nc3ccc(C(=O)N4CCN(c5ncccn5)CC4)cc3nc2-c2cccc(C)c2)c1 | 17% | -2.12 | – | –
Cc1nc(N2CCS(=O)(=O)C[C@@H](C)C2)nc(C)c1CC(C)C | -7% | 0.86 | – | –
